{
  "source": "patent US20190083612A1",
  "about": "(RINAT NEUROSCIENCE, published 2019)",
  "key": {"[1]": {"target": "human PD-1 on primary human T cells (human, UniProt Q15116 25-288)", "assay": "cell-based or functional assay"}, "[2]": {"target": "T1, cynomolgus monkey-PD-1 (His-tagged monomer) (cynomolgus monkey, UniProt B0LAJ3 25-170)", "assay": "SPR (ProteOn NLC chip), 37 C, n 8"}, "[3]": {"target": "T2, Cynomolgus Monkey-FCGRIIa (cynomolgus monkey)", "T2 chain": "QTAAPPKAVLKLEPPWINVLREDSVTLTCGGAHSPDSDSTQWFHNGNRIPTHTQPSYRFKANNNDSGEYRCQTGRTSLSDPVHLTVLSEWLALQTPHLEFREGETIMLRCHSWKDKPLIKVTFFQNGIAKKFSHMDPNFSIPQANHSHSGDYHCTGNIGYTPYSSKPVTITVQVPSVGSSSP", "assay": "SPR (ProteOn NLC chip), 25 C, pH 7.4"}, "hu-FCGRI (hu-CD64)": {"target": "T3, hu-FCGRI (hu-CD64) (human, UniProt P12314 16-288, limits assumed)", "T3 construct": "also called human Fc gamma receptor I", "assay": "SPR (ProteOn NLC chip), 25 C, pH 7.4"}, "[4]": {"target": "T4, hu-FCGRIIa (hu-CD32a) 131H (human, UniProt P12318 36-218)", "T4 sequence (looked up)": "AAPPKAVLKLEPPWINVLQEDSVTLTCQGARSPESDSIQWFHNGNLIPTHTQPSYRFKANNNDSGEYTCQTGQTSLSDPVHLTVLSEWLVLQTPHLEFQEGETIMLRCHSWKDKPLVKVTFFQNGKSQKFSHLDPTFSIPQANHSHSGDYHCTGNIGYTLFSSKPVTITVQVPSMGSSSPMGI", "assay": "SPR (ProteOn NLC chip), 25 C, pH 7.4"}, "[5]": {"target": "T5, hu-FCGRIIa (hu-CD32a) 131R (human, UniProt P12318 36-218)", "T5 sequence (looked up)": "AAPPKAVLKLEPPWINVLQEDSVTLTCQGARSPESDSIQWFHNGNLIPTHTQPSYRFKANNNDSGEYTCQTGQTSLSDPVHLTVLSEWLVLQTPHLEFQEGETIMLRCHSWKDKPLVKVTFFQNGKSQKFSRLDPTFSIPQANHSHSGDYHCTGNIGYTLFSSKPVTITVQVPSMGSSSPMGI", "assay": "SPR (ProteOn NLC chip), 25 C, pH 7.4"}, "hu-FCGRIIb (hu-CD32b)": {"target": "T6, hu-FCGRIIb (hu-CD32b) (human, UniProt P31994 46-217)", "T6 sequence (looked up)": "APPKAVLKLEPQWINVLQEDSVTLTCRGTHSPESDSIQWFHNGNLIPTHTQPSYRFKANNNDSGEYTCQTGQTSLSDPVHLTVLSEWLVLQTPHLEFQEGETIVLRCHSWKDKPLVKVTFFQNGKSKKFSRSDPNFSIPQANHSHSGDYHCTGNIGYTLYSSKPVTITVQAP", "assay": "SPR (ProteOn NLC chip), 25 C, pH 7.4"}, "[6]": {"target": "hu-FCGRIIIa (hu-CD16a) 158F (human, UniProt P08637 in part, limits assumed)", "assay": "SPR (ProteOn NLC chip), 25 C, pH 7.4"}, "[7]": {"target": "hu-FCGRIIIa (hu-CD16a) 158V (human, UniProt P08637 in part, limits assumed)", "assay": "SPR (ProteOn NLC chip), 25 C, pH 7.4"}, "[8]": {"target": "Cynomolgus Monkey-FCGRIIIa 42R (cynomolgus monkey, UniProt Q8SPW2 17-208)", "sequence (Q8SPW2 17-208 limits assumed)": "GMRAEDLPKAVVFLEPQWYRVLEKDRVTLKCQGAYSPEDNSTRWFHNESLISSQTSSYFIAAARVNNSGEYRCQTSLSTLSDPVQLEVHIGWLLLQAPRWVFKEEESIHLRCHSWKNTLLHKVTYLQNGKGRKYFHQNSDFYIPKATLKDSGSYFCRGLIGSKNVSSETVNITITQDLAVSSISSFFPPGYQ", "assay": "SPR (ProteOn NLC chip), 25 C, pH 7.4"}, "[9]": {"target": "Cynomolgus Monkey-FCGRIIIa 42S (cynomolgus monkey)", "assay": "SPR (ProteOn NLC chip), 25 C, pH 7.4"}, "[10]": {"target": "T7, human PD-1 on stably transfected Jurkat cells (human, UniProt Q15116 25-288)", "T7 construct": "also called Jurkat/Human-PD-1; Human-PD-1/Jurkat", "assay": "FACS, Jurkat/human-PD-1, average ± sem"}, "[11]": {"target": "T8, cynomolgus monkey PD-1 on primary cynomolgus monkey T cells (cynomolgus monkey, UniProt B0LAJ3 25-288)", "T8 construct": "also called PD-1 on cyno T cells", "assay": "FACS, activated primary cynomolgus monkey T cells, individual 1"}, "[12]": {"target": "T8, cynomolgus monkey PD-1 on primary …", "assay": "FACS, activated primary cynomolgus monkey T cells, average ± sem"}, "[13]": {"target": "T9, cynomolgus monkey PD-1 on stably transfected Jurkat cells (cynomolgus monkey)", "T9 construct": "whole, on cells; also called Jurkat/Cynomolgus Monkey-PD-1; Cynomolgus Monkey-PD-1/Jurkat", "assay": "FACS, blockade of cyno PD-L1 (20 µg/mL) on cyno-PD-1/Jurkat, repeat 1"}, "[14]": {"target": "T9, cynomolgus monkey PD-1 on stably …", "assay": "FACS, blockade of cyno PD-L2 (20 µg/mL) on cyno-PD-1/Jurkat, repeat 1"}, "[15]": {"target": "T9, cynomolgus monkey PD-1 on stably …", "assay": "FACS, blockade of cyno PD-L2 (20 µg/mL) on cyno-PD-1/Jurkat, repeat 2"}, "[16]": {"target": "T1, cynomolgus monkey-PD-1 (His-tagged …)", "assay": "KinExA in solution, 23 C, PD-1 titrated; 95% confidence interval (34-23), n 4"}, "[17]": {"target": "T7, human PD-1 on stably transfected Jurkat …", "assay": "FACS, blockade of biotinylated hu-PD-L1 (20 µg/mL) on human-PD-1/Jurkat, repeat 1"}, "[18]": {"target": "T7, human PD-1 on stably transfected Jurkat …", "assay": "FACS, blockade of biotinylated hu-PD-L2 (20 µg/mL) on human-PD-1/Jurkat, repeat 1"}},
  "data": [
    {"binder": "mAb7 (human IgG4 kappa, hinge stabilized) (antibody, also called mAb7-G4; mAb7 (G4); copies: 2 + 2) heavy: QVQLVQSGAEVKKPGASVKVSCKASGYTFTSYWINWVRQAPGQGLEWMGNIYPGSSLTNYNEKFKNRVTMTRDTSTSTVYMELSSLRSEDTAVYYCARLSTGTFAYWGQGTLVTVSSASTKGPSVFPLAPCSRSTSESTAALGCLVKDYFPEPVTVSWNSGALTSGVHTFPAVLQSSGLYSLSSVVTVPSSSLGTKTYTCNVDHKPSNTKVDKRV[human IgG4 Fc with S228P (EU numbers) skipped] light: DIVMTQSPDSLAVSLGERATINCKSSQSLWDSGNQKNFLTWYQQKPGQPPKLLIYWTSYRESGVPDRFSGSGSGTDFTLTISSLQAEDVAVYYCQNDYFYPHTFGGGTKVEIKRGTVAAPSVFIFPPSDEQLKSGTASVVCLLNNFYPREAKVQWKVDNALQSGNSQESVTEQDSKDSTYSLSSTLTLSKADYEKHKVYACEVTHQGLSSPVTKSFNRGEC", "values": [
      {"measurement": "IFN-γ level, human MLR with DCs expressing PD-L1, compared to negative control antibody", "setting": "[1]", "value": "≤ 8", "unit": "fold"},
      {"measurement": "IFN-γ secretion, human MLR with JeKo 1 PD-L1 cells, compared to negative control antibody", "setting": "[1]", "value": "≤ 2.5", "unit": "fold"},
      {"measurement": "IL-2 secretion, human MLR with JeKo 1 PD-L1 cells, compared to negative control antibody", "setting": "[1]", "value": "≤ 5", "unit": "fold"},
      {"measurement": "T-cell proliferation, human MLR with DCs expressing PD-L1, 10 µg/mL, over negative control antibody", "setting": "[1]", "value": "≤ 2.5", "unit": "fold"},
      {"measurement": "TNF-α level, human MLR with DCs expressing PD-L1, compared to negative control antibody", "setting": "[1]", "value": "≤ 5", "unit": "fold"},
      {"measurement": "TNF-α secretion, human MLR with JeKo 1 PD-L1 cells, compared to negative control antibody", "setting": "[1]", "value": "≤ 2", "unit": "fold"},
      {"measurement": "Kd", "setting": "[2]", "value": 0.115, "unit": "nM"},
      {"measurement": "koff", "setting": "[2]", "value": 0.000112, "unit": "s⁻¹"},
      {"measurement": "kon", "setting": "[2]", "value": 980000, "unit": "M⁻¹ s⁻¹"},
      {"measurement": "Kd", "setting": "[3]", "value": 2400, "unit": "nM"},
      {"measurement": "koff", "setting": "hu-FCGRI (hu-CD64)", "value": 0.0013, "unit": "s⁻¹"},
      {"measurement": "kon", "setting": "hu-FCGRI (hu-CD64)", "value": "9.1e+06", "unit": "M⁻¹ s⁻¹"},
      {"measurement": "Kd", "setting": "[4]", "value": 3.6, "unit": "µM"},
      {"measurement": "Kd", "setting": "[5]", "value": 800, "unit": "nM"},
      {"measurement": "Kd", "setting": "hu-FCGRIIb (hu-CD32b)", "value": 1100, "unit": "nM"},
      {"measurement": "binding result", "setting": "[6]", "value": "binds"},
      {"measurement": "binding result", "setting": "[7]", "value": "binds"},
      {"measurement": "Kd", "setting": "[8]", "value": 2700, "unit": "nM"},
      {"measurement": "Kd", "setting": "[9]", "value": 1600, "unit": "nM"},
      {"measurement": "EC50", "setting": "[10]", "value": 0.0647, "unit": "nM"},
      {"measurement": "EC50", "setting": "[11]", "value": 0.0736, "unit": "nM"},
      {"measurement": "EC50", "setting": "[12]", "value": 0.0853, "unit": "nM"},
      {"measurement": "IC50", "setting": "[13]", "value": 0.833, "unit": "nM"},
      {"measurement": "IC50", "setting": "[14]", "value": 0.75, "unit": "nM"},
      {"measurement": "IC50", "setting": "[15]", "value": 0.928, "unit": "nM"},
      {"measurement": "Kd", "setting": "[16]", "value": 0.028, "unit": "nM"},
      {"measurement": "IC50", "setting": "[17]", "value": 0.59, "unit": "nM"},
      {"measurement": "IC50", "setting": "[18]", "value": 0.703, "unit": "nM"}
    ]}
  ]
}
